Results published in PubChem BioAssay AID1345082 (National Center for Advancing Translational Sciences (NCATS), 2018).
In all, about 94,000 compounds went through this assay and about 4,000 (4.3%) were called active. Inconclusive means that the source gave no clear call. Such entries were picked first, then a sample of the others. Calls come from the whole dose curve; as a rule, active = well fitted inhibition curve with a large enough effect; inconclusive = small, poorly fitted or top-dose-only effect; inactive = no such curve, though single readings can be large or run the other way. Where the call is inconclusive, the potency comes from a doubtful curve fit.

test: Cytotoxic Profiling in NIH 3T3 Cell Line of Diverse Libraries Using Quantitative High-Throughput Screening; conditions: NIH 3T3 viability, CellTiter-Glo ATP luminescence, 48-72 h; activity change, negative = cytotoxicity: at 96.7 µM (top of the series); series mostly up to 96.7 µM; note: nearly all actives have a fitted effect of over 55% in size
Outline: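 Cytotoxicity was measured by CellTiter-Glo ATP luminescence after 48 or 72 h compound exposure at 37 °C. Mouse NIH 3T3 fibroblasts were seeded at 400 cells/well and dosed by 23 nL pin transfer.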
% is set by controls: 0 for no effect and ±100 for the full control effect; potency is the fitted concentration of half-maximal effect; tags give direction and shape of the fitted curve.

Compound	Potency	outcome	activity change, negative = cytotoxicity
COc1cccc(CNC2(Cc3cc(-c4ccc(F)cc4)on3)COC2)c1	inconclusive: 100 µM [inhibitor, partial curve, poor fit]		
N#CC1CCN(C(=O)c2nc(-c3cc(Cl)cc(Cl)c3)c3ccccn23)CC1	inconclusive: 44.7 µM [inhibitor, partial curve, poor fit]		
O=C1CO[C@H]2CCN(CCCc3ccccc3)CC[C@@H]2N1c1ccccc1	active: 89.1 µM		
CCn1cnnc1-c1nn(C)c2c1CN(C(=O)Cc1cccc(F)c1)CC2		inactive	
CN(C)C1CCN(Cc2cc3cc4c(cc3nc2-c2ccc(Cl)cc2)OCO4)C1 (stereo not given)	inconclusive: 10 µM [inhibitor, full curve, poor fit]		
O=C1[C@H]2CN(Cc3ccc(OC(F)(F)F)cc3)C[C@H]2C(=O)N1Cc1ccc2c(c1)OCO2	inconclusive: 50.1 µM [inhibitor, partial curve, poor fit]		
Cc1noc(-c2cccs2)c1C(=O)NCCCCc1ccccc1	inconclusive: 44.7 µM [inhibitor, partial curve, poor fit]		
CCn1cc(CN(C)C(=O)CCc2nc(-c3ccccc3OC)no2)cn1			inactive: -4.8%
CC(=O)N1CCN(c2nc3c(s2)CC(C(=O)NCc2ccc(C(C)C)cc2)CC3)CC1 (stereo not given)	inconclusive: 44.7 µM [inhibitor, partial curve, poor fit]		
COc1cc(NC(=O)C2(C)CCCCC(=O)N2)cc(OC)c1 (stereo not given)		inactive	
O=C(O)c1ccc(CN2Cc3[nH]cnc3C[C@H]2c2nc(-c3ccncc3)no2)cc1			inactive: -3.05% [at 174 µM]
CC1=C[C@@H](CNC(=O)CC(C)(C)CC(=O)O)[C@H](C(C)C)C[C@H]1Cc1nc2ccccc2n1C	inconclusive: 70.8 µM [inhibitor, partial curve]		
CC(=O)N1Cc2ccccc2CC2(CCN(CC3CCOCC3)C2)C1 (stereo not given)			inactive: -11.5%
Clc1ccc(C2Cn3nnc(-c4nc(C5CCCCC5)no4)c3CO2)cc1 (stereo not given)	inconclusive: 79.4 µM [inhibitor, partial curve, poor fit]		
O=C(c1ccc2c(c1)OCO2)N1CCC2(CC1)N(Cc1ccccc1)C(=O)CS2(=O)=O			inactive: -20.5%
COc1ccc(-c2cccc(C(=O)N3CCC(NC(=O)C4CCCC4)CC3)c2)nn1			inactive: -18.8%
COc1nc2c(cc1CNC(=O)c1cccnc1C)C(=O)N(C1CCCC1)C2	inconclusive: 28.2 µM [inhibitor, partial curve, poor fit]		
Cc1ccccc1CNC[C@H]1O[C@@H]2C[C@@H](CC(=O)N3CCC(F)(F)C3)O[C@@H]2[C@@H]1O	inconclusive: 39.8 µM [inhibitor, full curve]		
CN(CCc1ccccc1)[C@@H]1[C@H](O)[C@H](CO)O[C@@H]1CNC(=O)c1cccc(F)c1			inactive: -20.8%
CCOc1ccc(CN2CCOc3ccc(C(=O)NCc4ccccc4F)cc3C2)cc1	inconclusive: 31.6 µM [inhibitor, full curve]		
O=C(NC1CCCc2c1[nH]c1ccccc21)c1ccccc1 (stereo not given)	inconclusive: 79.4 µM [inhibitor, single point]		
O=C(CC1CCCCC1)Nc1cccc(-c2nnc3n2CCCC3)c1			inactive: -4.65%

Compound	Potency	outcome	activity change, negative = cytotoxicity
Cc1nnc(NC(=O)NC2CCN(Cc3ccccc3)CC2)s1	inconclusive: 39.8 µM [inhibitor, partial curve, poor fit]		
NCc1ccccc1-c1cccc(C(F)(F)F)c1	inconclusive: 100 µM [inhibitor, single point]		
CN(Cc1ccccc1)C(=O)Cc1cccn1-c1ccc(F)cc1			inactive: -12%
O=C(c1cccc(O)c1)N1CCNc2cnc(Nc3cccc(F)c3)nc2C1	inconclusive: 89.1 µM [inhibitor, partial curve, poor fit]		
COC(=O)c1cccc(NC(=O)c2ccc3c(c2)N(C)C2CCCCCN2C3=O)c1 (stereo not given)	active: 44.7 µM		
CC(C)CCN1C[C@@H]2C[C@H]1C(=O)N(Cc1cccnc1)c1ccccc1O2	inconclusive: 100 µM [inhibitor, single point]		
COCCNC(=O)c1cc(-c2ccc(OC)cc2)nc2c1c(C)nn2-c1ccccc1	inconclusive: 50.1 µM [inhibitor, partial curve, poor fit]		
CCN1CCN(c2nc3c(s2)CN(C(=O)c2ccncc2)CC3)CC1			inactive: 0.582%
O=[S+]([O-])(Nc1cccnc1)c1ccc2c(c1)OCCN(Cc1cccs1)C2	inconclusive: 10 µM [inhibitor, full curve, poor fit]		
CCn1ccc(C(=O)N2CCC(CCOc3ccccc3F)C2)n1 (stereo not given)	inconclusive: 44.7 µM [inhibitor, partial curve, poor fit]		
CCN(CC)Cc1ccc2c(c1)CN(C(=O)NCC(C)C)CCO2			inactive: -6.41%
COc1ccc(-c2noc(CC3CCN(C(=O)c4ccc5c(c4)OCO5)CC3)n2)cc1	inconclusive: 5.62 µM [inhibitor, full curve, poor fit]		
CCC(CC)C(=O)N1CCC2(CCc3nn(CCOC)c(=O)n3CC2)CC1			inactive: -10.5%
CCC1c2nccn2CCCN1C(=O)c1c(C)noc1C (stereo not given)		inactive	
Cc1ccccc1NCc1nc2c(n1Cc1ccccc1)C(=O)N(CCOc1ccccc1)CCN2	active: 31.6 µM		
CCOC(=O)C1CCN(C(=O)C2CCc3nnc(-c4cccc(C(F)(F)F)c4)n32)CC1 (stereo not given)			inactive: -29.8%
CCN(CC)C(=O)c1cc2c(n1C)CCN(Cc1ccc(F)cc1)C2			inactive: 3.79%
Cn1ncc(N2CCCC(C(=O)NCCCc3ccccc3)C2)cc1=O (stereo not given)	inconclusive: 39.8 µM [inhibitor, partial curve]		
C[C@@]1(O)CCN(Cc2ccccc2F)C[C@H]1N1CCCC1			inactive: -19.8%
O=C(Nc1ccc(F)cc1F)N[C@H]1[C@H]2CCO[C@H]2[C@@H]1N1CCCCC1			inactive: -12.7%
COCCN1C(=O)c2ccccc2C(C(=O)Nc2ccccc2C)C12CCCCC2 (stereo not given)	inconclusive: 70.8 µM [inhibitor, single point]		
O=C(NCc1cccs1)c1cc(-c2cccc(C(F)(F)F)c2)c2nncn2n1	inconclusive: 31.6 µM [inhibitor, partial curve, poor fit]		

Compound	Potency	outcome	activity change, negative = cytotoxicity
COc1ccc(N2CC(c3noc(-c4cccc(F)c4)n3)CC2=O)cc1 (stereo not given)	inconclusive: 50.1 µM [inhibitor, partial curve, poor fit]		
Cc1nnc2ccc(N3CCCN(C(=O)c4cccc(Cl)c4)CC3)nn12			inactive: -13.2%
COC(=O)CNC(=O)C1CCN(Cc2ccccc2-c2ccc(C)c(Cl)c2)CC1	inconclusive: 63.1 µM [inhibitor, partial curve, poor fit]		
O=C(c1cccc(C(F)(F)F)c1)N1CCC(c2n[nH]c(=O)n2Cc2ccc(F)cc2)CC1	inconclusive: 2.51 µM [inhibitor, full curve, poor fit]		
O=C(Nc1cccc(-c2cccc(Cl)c2)c1)C1CCN(Cc2cccc(O)c2)CC1	inconclusive: 20 µM [inhibitor, full curve, poor fit]		
COc1ccc(C(=O)N2CC(Oc3ccc(F)c(F)c3)C2)cc1	inconclusive: 79.4 µM [inhibitor, single point]		
CCC1Oc2ccc(NC(=O)Cc3ccc(OC)cc3)cc2CN(Cc2ccc(OC)cc2)C1=O (stereo not given)	inconclusive: 20 µM [inhibitor, full curve, poor fit]		
COc1ccc(OCc2nnc(C(=O)N3CCC[C@@H]3c3nc4ccccc4[nH]3)n2-c2ccccc2)cc1	active: 11.2 µM		
COc1cc([C@@H]2c3cc4c(cc3[C@H](O)[C@@H](CO)[C@@H]2C(=O)NCC2CC2)OCO4)cc(OC)c1OC	inconclusive: 3.16 µM [inhibitor, full curve, poor fit]		
CNC(=O)c1cc(C2CC2)nc2c1c(C1CCN(C(=O)c3ccc(F)cc3)CC1)nn2C	inconclusive: 50.1 µM [inhibitor, partial curve, poor fit]		
COc1ccc(C2Cn3cnc(C(=O)N4CCC(C(=O)NCc5cccc(C)c5)CC4)c3CO2)cc1 (stereo not given)			inactive: -4.58%
c1coc(-c2ccnc3nc(-c4cccs4)nn23)c1	active: 35.5 µM		
N#Cc1ccc(CN2C[C@@H]3C[C@H]2C(=O)N(Cc2ccccc2)c2ccccc2O3)cc1	inconclusive: 89.1 µM [inhibitor, partial curve, poor fit]		
CC(C)CN1C(=O)c2cccn2CC1C(=O)NC1CCCCCC1 (stereo not given)			inactive: -0.831%
CC1=C[C@@H](CNC(=O)c2cncnc2)[C@H](C(C)C)C[C@H]1CC(=O)N(C)Cc1ccccc1	inconclusive: 89.1 µM [inhibitor, partial curve, poor fit]		
C[C@H]1CN(C(=O)c2nn(C)c3ccccc23)C[C@@H]1c1nc(-c2cccnc2)no1	inconclusive: 50.1 µM [inhibitor, partial curve, poor fit]		
COc1ccc(CCN2CC(NCc3ccc4c(c3)OCCO4)CC2=O)cc1 (stereo not given)			inactive: -24.8%
CCCc1noc(-c2cn(C3CCN(C(=O)c4cc(F)ccc4F)CC3)nn2)n1	inconclusive: 39.8 µM [inhibitor, partial curve]		
CCc1cccc(NC(=O)Cn2c(N(C)Cc3ccccc3)nc(C)cc2=O)c1	inconclusive: 11.2 µM [inhibitor, full curve, poor fit]		
CCOC(=O)C1CCN(C(=O)c2cc(-c3ccncc3)cn2Cc2ccccc2C)CC1	inconclusive: 44.7 µM [inhibitor, partial curve, poor fit]		
CN(Cc1ccccc1)C(=O)C[C@@H]1c2nc(NC(=O)C3CCC3)sc2C[C@@H]2[C@](C)(CO)[C@H](O)CC[C@]21C	inconclusive: 50.1 µM [inhibitor, partial curve, poor fit]		
